# This is one part of the list.
# Experiments:
# Experiment in all cases: glycan array binding signal (z-score within array); higher = stronger binding
# Details in all cases: glycan notation: IUPAC condensed, linker removed
# GlcNAc(b1-6)GalNAc = target: GlcNAc(b1-6)GalNAc
# Outline: (§1)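 Negative Z-scores can be read as non-binding. The Z-score is calculated within each array and then averaged across arrays of one protein sequence at different concentrations or buffers and across linkers. Arrays, 3228 in all, were curated from the Consortium for Functional Glycomics database and kept only where the protein sequence was available.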
# GlcNAc3Prop(b1-4)GlcNAc = target: GlcNAc3Prop(b1-4)GlcNAc
# Outline: as §1
# Kdn(a2-3)Gal(b1-3)GlcNAc = target: Kdn(a2-3)Gal(b1-3)GlcNAc
# Outline: as §1
# Kdn(a2-3)Gal(b1-4)GlcNAc = target: Kdn(a2-3)Gal(b1-4)GlcNAc
# Outline: as §1
# [1] = target: Man(a1-2)Man(a1-2)Man(a1-3)Man
# Outline: as §1
# [2] = target: Man(a1-2)Man(a1-2)Man(a1-6)[Man(a1-3)]Man
# Outline: as §1
# Man(a1-2)Man(a1-3)Man = target: Man(a1-2)Man(a1-3)Man
# Outline: as §1
# [3] = target: Man(a1-2)Man(a1-3)[Man(a1-2)Man(a1-6)]Man
# Outline: as §1
# [4] = target: Man(a1-2)Man(a1-3)[Man(a1-2)Man(a1-6)]Man(a1-6)[Man(a1-2)Man(a1-2)Man(a1-3)]Man
# Outline: as §1
# [5] = target: Man(a1-2)Man(a1-3)[Man(a1-2)Man(a1-6)]Man(a1-6)[Man(a1-2)Man(a1-2)Man(a1-3)]Man(b1-4)GlcNAc(b1-4)GlcNAc
# Outline: as §1
# [6] = target: Man(a1-2)Man(a1-3)[Man(a1-6)]Man(a1-6)[Man(a1-2)Man(a1-3)]Man(b1-4)GlcNAc(b1-4)GlcNAc
# Outline: as §1
# [7] = target: Man(a1-2)Man(a1-6)[Man(a1-3)]Man(a1-6)[Man(a1-2)Man(a1-2)Man(a1-3)]Man
# Outline: as §1
# [8] = target: Man(a1-2)Man(a1-6)[Man(a1-3)]Man(a1-6)[Man(a1-2)Man(a1-2)Man(a1-3)]Man(b1-4)GlcNAc(b1-4)GlcNAc
# Outline: as §1
# Man(a1-3)[Man(a1-6)]Man = target: Man(a1-3)[Man(a1-6)]Man
# Outline: as §1
# [9] = target: Man(a1-3)[Man(a1-6)]Man(a1-6)[Man(a1-2)Man(a1-3)]Man(b1-4)GlcNAc(b1-4)GlcNAc
# Outline: as §1
# [10] = target: Man(a1-3)[Man(a1-6)]Man(a1-6)[Man(a1-3)]Man
# Outline: as §1
# [11] = target: Man(a1-3)[Man(a1-6)]Man(a1-6)[Man(a1-3)]Man(b1-4)GlcNAc(b1-4)GlcNAc
# Outline: as §1
# [12] = target: Man(a1-3)[Man(a1-6)]Man(b1-4)GlcNAc(b1-4)GlcNAc
# Outline: as §1
# Man(a1-6)Man = target: Man(a1-6)Man
# Outline: as §1
# Man(b1-4)GlcNAc = target: Man(b1-4)GlcNAc
# Outline: as §1
# Neu5Ac(a2-3)Gal = target: Neu5Ac(a2-3)Gal
# Outline: as §1
# [13] = target: Neu5Ac(a2-3)Gal(b1-3)GalNAc
# Outline: as §1
# [14] = target: Neu5Ac(a2-3)Gal(b1-3)GalNAc(b1-3)Gal(a1-4)Gal(b1-4)Glc
# Outline: as §1
# [15] = target: Neu5Ac(a2-3)Gal(b1-3)GalNAc(b1-3)Gal(b1-4)GlcNAc
# Outline: as §1
# [16] = target: Neu5Ac(a2-3)Gal(b1-3)GalNAc(b1-4)[Neu5Ac(a2-3)]Gal(b1-4)Glc
# Outline: as §1
# [17] = target: Neu5Ac(a2-3)Gal(b1-3)GalNAc6S
# Outline: as §1
# [18] = target: Neu5Ac(a2-3)Gal(b1-3)GlcNAc
# Outline: as §1
# [19] = target: Neu5Ac(a2-3)Gal(b1-3)GlcNAc(b1-3)Gal(b1-3)GlcNAc
# Outline: as §1
# [20] = target: Neu5Ac(a2-3)Gal(b1-3)GlcNAc6S
# Outline: as §1
# [21] = target: Neu5Ac(a2-3)Gal(b1-3)[Fuc(a1-4)]GlcNAc
# Outline: as §1
# [22] = target: Neu5Ac(a2-3)Gal(b1-3)[Fuc(a1-4)]GlcNAc(b1-3)Gal(b1-4)[Fuc(a1-3)]GlcNAc
# Outline: as §1
# [23] = target: Neu5Ac(a2-3)Gal(b1-3)[Neu5Ac(a2-3)Gal(b1-4)]GlcNAc
# Outline: as §1
# [24] = target: Neu5Ac(a2-3)Gal(b1-3)[Neu5Ac(a2-6)]GalNAc
# Outline: as §1
# Neu5Ac(a2-3)Gal(b1-4)Glc = target: Neu5Ac(a2-3)Gal(b1-4)Glc
# Outline: as §1
# [25] = target: Neu5Ac(a2-3)Gal(b1-4)GlcNAc
# Outline: as §1
# [26] = target: Neu5Ac(a2-3)Gal(b1-4)GlcNAc(b1-2)Man(a1-3)[GlcNAc(b1-2)Man(b1-4)GlcNAc(b1-2)Man(a1-6)]Man(b1-4)GlcNAc(b1-4)GlcNAc
# Outline: as §1
# [27] = target: Neu5Ac(a2-3)Gal(b1-4)GlcNAc(b1-2)Man(a1-3)[Neu5Ac(a2-6)Gal(b1-4)GlcNAc(b1-2)Man(a1-6)]Man(b1-4)GlcNAc(b1-4)GlcNAc
# Outline: as §1
# [28] = target: Neu5Ac(a2-3)Gal(b1-4)GlcNAc(b1-3)Gal(b1-3)GlcNAc
# Outline: as §1
# [29] = target: Neu5Ac(a2-3)Gal(b1-4)GlcNAc(b1-3)Gal(b1-4)GlcNAc
# Outline: as §1
# [30] = target: Neu5Ac(a2-3)Gal(b1-4)GlcNAc(b1-3)Gal(b1-4)GlcNAc(b1-3)Gal(b1-4)GlcNAc
# Outline: as §1
# [31] = target: Neu5Ac(a2-3)Gal(b1-4)GlcNAc(b1-3)Gal(b1-4)[Fuc(a1-3)]GlcNAc
# Outline: as §1
# [32] = target: Neu5Ac(a2-3)Gal(b1-4)GlcNAc(b1-6)[Gal(b1-3)]GalNAc
# Outline: as §1
# [33] = target: Neu5Ac(a2-3)Gal(b1-4)GlcNAc(b1-6)[Neu5Ac(a2-3)Gal(b1-3)]GalNAc
# Outline: as §1
# [34] = target: Neu5Ac(a2-3)Gal(b1-4)GlcNAc6S
# Outline: as §1
binder,measurement,setting,value
BDCA2 ex-domain (Homo sapiens) (protein) MASHHHHHHIEGRGLNDIFEAQKIEWHESLVPRGSCPTPWTSFQSSCYFISTGMQSWTKSQKNCSVMGADLVVINTREEQDFIIQNLKRNSSYFLGLSDPGGRRHWQWVDQTPYNENVTFWHSGEPNNLDERCAIINFRSSEEWGWNDIHCHVPQKSICKMKKIY,glycan array binding signal (z-score),GlcNAc(b1-6)GalNAc,-0.279
same,glycan array binding signal (z-score),GlcNAc3Prop(b1-4)GlcNAc,-0.45
same,glycan array binding signal (z-score),Kdn(a2-3)Gal(b1-3)GlcNAc,-0.114
same,glycan array binding signal (z-score),Kdn(a2-3)Gal(b1-4)GlcNAc,0.619
same,glycan array binding signal (z-score),[1],-0.52
same,glycan array binding signal (z-score),[2],-0.128
same,glycan array binding signal (z-score),Man(a1-2)Man(a1-3)Man,-0.407
same,glycan array binding signal (z-score),[3],0.622
same,glycan array binding signal (z-score),[4],-0.068
same,glycan array binding signal (z-score),[5],0.299
same,glycan array binding signal (z-score),[6],0.107
same,glycan array binding signal (z-score),[7],-0.559
same,glycan array binding signal (z-score),[8],-0.433
same,glycan array binding signal (z-score),Man(a1-3)[Man(a1-6)]Man,-0.26
same,glycan array binding signal (z-score),[9],0.3
same,glycan array binding signal (z-score),[10],-0.134
same,glycan array binding signal (z-score),[11],0.206
same,glycan array binding signal (z-score),[12],-0.15
same,glycan array binding signal (z-score),Man(a1-6)Man,0.887
same,glycan array binding signal (z-score),Man(b1-4)GlcNAc,0.076
same,glycan array binding signal (z-score),Neu5Ac(a2-3)Gal,-0.249
same,glycan array binding signal (z-score),[13],0.865
same,glycan array binding signal (z-score),[14],-0.195
same,glycan array binding signal (z-score),[15],0.751
same,glycan array binding signal (z-score),[16],0.273
same,glycan array binding signal (z-score),[17],-0.02
same,glycan array binding signal (z-score),[18],-0.015
same,glycan array binding signal (z-score),[19],-0.143
same,glycan array binding signal (z-score),[20],0.425
same,glycan array binding signal (z-score),[21],-0.168
same,glycan array binding signal (z-score),[22],-0.43
same,glycan array binding signal (z-score),[23],-0.211
same,glycan array binding signal (z-score),[24],-0.2
same,glycan array binding signal (z-score),Neu5Ac(a2-3)Gal(b1-4)Glc,-0.087
same,glycan array binding signal (z-score),[25],0.347
same,glycan array binding signal (z-score),[26],-0.196
same,glycan array binding signal (z-score),[27],-0.273
same,glycan array binding signal (z-score),[28],-0.251
same,glycan array binding signal (z-score),[29],1
same,glycan array binding signal (z-score),[30],1.33
same,glycan array binding signal (z-score),[31],0.601
same,glycan array binding signal (z-score),[32],-0.007
same,glycan array binding signal (z-score),[33],-0.227
same,glycan array binding signal (z-score),[34],-1.32
